In the RNAGym collection of RNA variant scans (doi:10.7554/elife.90254) one finds self-cleavage data, which are given here for 167 variants.

Read counts are not given, so values of variants with three or more changes are uncertain.

The chains are these.
B1: LINE1-full (parent)
chain: UACGUAGGUGGUUUUCCCCUGAUAGUGCUAAGGGGGCCUGGAAGUUUGGACUGGGCAGAGCUCAACACAGCGUGGCAAAGUGGCUGUGGCUAGACUGCCUCUCUGGAUUCCUCGUCACUCAGCAGGGCAUCUCUGAGAGAAAUGCC

Variants of B1 are the subject of the data set. The data set is described as follows: self-cleavage, relative activity (ratio to wild type); higher = more cleavage; in vitro, sequencing; the parent is a self-cleaving ribozyme.
As to U13C U47A U119C A136G U143C, the self-cleavage was determined as 1.37.

Take U14A A77U U100C: the self-cleavage was determined as 1.41.

U13C U47A U73A: the self-cleavage came out at 1.2.

For U13C U46C U96C, the self-cleavage amounted to 0.08.

As to U13C U14C U62C A117G, the self-cleavage turned out to be 0.

As to U13C U20C U47C, the self-cleavage came to 1.03.

U13C U15C U102C: the self-cleavage was found to be 0.21.

As to U14A C71U G83U U102A, the self-cleavage was determined as 0.08.

On to U14A A59C U62C A142U, for which the self-cleavage was 0.

Take U13C U104C U130C A140G: the self-cleavage came to 1.41.

Take U13C U115A A129G: the self-cleavage was determined as 0.96.

In the case of U13C U20C A107U, the self-cleavage was found to be 1.4.

For U14A A43G A64C, the self-cleavage came to 0.35.

In the case of U14C A22U U47G U102A, the self-cleavage worked out at 1.25.

For the variant U13C U47C A69G G70C U108C, the self-cleavage was determined as 0.

In the case of U13C U73C U87C, the self-cleavage was determined as 0.

Regarding U13G G89U U132A U134A, the self-cleavage worked out at 0.12.

Consider U14A A67C U85C, for which the self-cleavage is 0.08.

Turning to U13C U47C A140G, the self-cleavage worked out at 1.5.

For U13C U23C U104C, the self-cleavage came out at 0.95.

U13C U23A U91A U112C: the self-cleavage was 0.77.

As for U13C U39A U112C, the self-cleavage stood at 0.76.

U13C U45C A64U C116U: the self-cleavage was found to be 0.29.

For the variant U13G U39A U85C, the self-cleavage is 0.71.

For the variant U13G U15C A57U, the self-cleavage was found to be 0.17.

As to U13C U109C A141G, the self-cleavage is 1.63.

U13C U14C U85A U108C G126A: the self-cleavage was found to be 0.25.

As for U13C G54A U119C U130C, the self-cleavage came out at 1.44.

Take U14C A57G U87A A94G: the self-cleavage is 0.46.

With U13C U47A A65U U91C, the self-cleavage came to 0.

With U13C U20A U45C U52C A124G, the self-cleavage was found to be 0.

Consider U13C U26C G54U U62C U143C, for which the self-cleavage is 0.13.

As to U13C U45C C66U, the self-cleavage is 0.06.

Turning to U13C U14C G48A U62G C133U, the self-cleavage came to 0.15.

With U13G U96C U112A U134A, the self-cleavage was 0.54.

In the case of U14A A57U U96C, the self-cleavage amounted to 0.07.

On to U14C A43G A117U, for which the self-cleavage turned out to be 2.17.

As to U14C A43G A117G, the self-cleavage stood at 1.67.

For U13C U14C U15C A24U G89A, the self-cleavage was 0.

As to U14A U102A A138G, the self-cleavage worked out at 1.46.

As for U14A G25A C103U G126A, the self-cleavage stood at 1.26.

In the case of U13C U26C U46C, the self-cleavage was determined as 1.7.

For the variant U13C U23C A140C, the self-cleavage amounted to 1.37.

Regarding U14A U26C U115C A138U, the self-cleavage amounted to 0.88.

Take U13C G32U A43G A142G: the self-cleavage was found to be 0.98.

For the variant U14A G36A U115A A138G, the self-cleavage turned out to be 0.82.

As to U13C U45C U91C A92U, the self-cleavage is 0.

For the variant U13C G53A A79G A140G, the self-cleavage was found to be 0.96.

Regarding U13C G75A A78G A117U, the self-cleavage was determined as 0.68.

For U13C G54A C84U, the self-cleavage was 0.01.

Regarding U14A A50G U52G, the self-cleavage turned out to be 0.79.

With U14C A24G U85C, the self-cleavage worked out at 1.15.

In the case of U13G U14C U20C U46C A79G, the self-cleavage was 0.

For the variant U14C A31G U130C, the self-cleavage came to 1.29.

In the case of U13C U112A G122A, the self-cleavage amounted to 1.

As for U14A A121G A136G A142G, the self-cleavage came out at 1.15.

Regarding U14C A42G A138U, the self-cleavage came out at 1.97.

With U13G A67G U96C, the self-cleavage is 0.

Turning to U13C U26A A77U, the self-cleavage was 0.87.

Regarding U14A U20C C37G A107G U112C, the self-cleavage is 2.11.

As for U13C U15C A64U A141G, the self-cleavage came to 0.47.

On to U13C G40A U47C A57U, for which the self-cleavage turned out to be 0.1.

As to U13C U73G A140G, the self-cleavage was found to be 0.

Consider U14C A31C A59U, for which the self-cleavage was determined as 0.84.

Regarding U13C U47A G58A U87A, the self-cleavage is 0.01.

As to U14C A30G A124G, the self-cleavage came to 0.84.

Regarding U13C U26C U45A U109A, the self-cleavage is 0.64.

Regarding U14C A24G A67G, the self-cleavage is 0.

Take U14A A92C C113U: the self-cleavage amounted to 0.13.

With U13C U15C G21A, the self-cleavage was 1.77.

Consider U13C U29G U73C U81A A92U A107U C131U, for which the self-cleavage amounted to 1.31.

In the case of U13C U15A G34A A129G, the self-cleavage stood at 1.66.

With U13C U39A A42U A79U U85C U87G, the self-cleavage was 0.19.

For the variant U13C G32U U46C A69G G122A, the self-cleavage was found to be 0.92.

As to U13C G105A U143C, the self-cleavage was determined as 1.05.

For the variant U13C U96C U112C, the self-cleavage was found to be 0.33.

Regarding U14A G32A U132C, the self-cleavage worked out at 1.

For the variant U14C A22G A43G U73A, the self-cleavage worked out at 1.26.

With U14A U81C U132C, the self-cleavage was determined as 0.81.

With U13G A57G U108C, the self-cleavage amounted to 0.68.

For U13C U87A A117U, the self-cleavage is 0.12.

For U13C U112C A140G, the self-cleavage was found to be 0.55.

U14A U39A U100C: the self-cleavage is 2.12.

Regarding U13C U39C U87A, the self-cleavage came out at 0.08.

Consider U13C U46A C68U C90G U130C U132C, for which the self-cleavage was 0.

Regarding U14A U96A G105A, the self-cleavage was determined as 0.04.

For the variant U13C U104A U119A, the self-cleavage is 1.15.

Consider U13C U15C A43U A94G U104C A121U A142G, for which the self-cleavage stood at 0.

With U13C U73A A94G, the self-cleavage amounted to 0.41.

Consider U13C U39C G54A A59U A138G, for which the self-cleavage worked out at 0.81.

Regarding U13G A22U A42G A107G A141G, the self-cleavage was 0.66.

Turning to U13C U47C A141G, the self-cleavage was 1.51.

On to U14C A30G A69G, for which the self-cleavage is 0.

Consider U14A U29A U52C A69U A77G G105U, for which the self-cleavage turned out to be 0.19.

Take U14C A24G C63U A140G A141G: the self-cleavage was found to be 0.51.

Regarding U14C A50G A92G, the self-cleavage came to 0.

In the case of U13C U46C U108A U109C G126A, the self-cleavage amounted to 1.29.

With U13C U45C A94U, the self-cleavage is 0.3.

Consider U13C G48A A136G, for which the self-cleavage came out at 1.12.

For the variant U14C A42G U62A A65G U102A, the self-cleavage is 0.

For the variant U14A U81A A140G, the self-cleavage stood at 0.61.

Take U13G G74A U81C: the self-cleavage is 0.88.

For U14A U20C A92G, the self-cleavage was 0.06.

Take U13C G40A A57G C98U: the self-cleavage amounted to 0.07.

As to U13C U23C A78G A140G, the self-cleavage is 1.25.

As for U13C U14C U15A A22G U29A C38A A64C, the self-cleavage was found to be 0.22.

As to U14C A42G U102C, the self-cleavage turned out to be 0.

With U14C A43G U87C U143C, the self-cleavage was 0.45.

As to U14A C17U A24U U112A, the self-cleavage was 0.62.

U14C A30U C98A A142G: the self-cleavage is 0.14.

Consider U13C U15C G33U U46C C113A A142G, for which the self-cleavage turned out to be 1.24.

As for U13C U23C U45C A121U G126C, the self-cleavage amounted to 1.97.

U13C U62C U130C: the self-cleavage was 0.

For U13C G32A A138G, the self-cleavage turned out to be 0.67.

In the case of U14A U46A U85G U108C A140G, the self-cleavage was 0.19.

With U13C U39C G114A, the self-cleavage is 0.

On to U13G U20G A50U, for which the self-cleavage amounted to 0.68.

Regarding U14A U45C G53A U100A U108C, the self-cleavage amounted to 0.64.

For U13C G33A U46C U100C, the self-cleavage worked out at 0.

On to U14A U96A U130C, for which the self-cleavage was 0.05.

Consider U13C G40A U104C A136G, for which the self-cleavage came out at 1.55.

On to U13G U130C U143C, for which the self-cleavage is 0.71.

Turning to U14C A57G A65G U115C U143A, the self-cleavage is 0.

As for U13C U62C A141G, the self-cleavage was determined as 0.

For U13C U45C A117G, the self-cleavage amounted to 1.38.

For U13C U46C A124G U132C, the self-cleavage was determined as 1.74.

On to U14C A43U U62A, for which the self-cleavage came to 0.11.

As to U13C U26C A64U A117G, the self-cleavage worked out at 1.84.

U13C U14C G49A U73A A78G A124U: the self-cleavage is 0.36.

Regarding U14C A57G A69G G137U, the self-cleavage was 0.

Regarding U14A G72A C90A, the self-cleavage amounted to 0.05.

As to U13C G21A U85C, the self-cleavage was determined as 0.27.

As for U13C U26C U47C A50G A64U, the self-cleavage worked out at 0.4.

In the case of U13C U15C G32A A138G, the self-cleavage is 2.33.

Turning to U14A A59G A136G, the self-cleavage was 0.1.

As to U14A U20A U62C A77U A136G, the self-cleavage worked out at 0.48.

In the case of U13C U81C U134C, the self-cleavage was 1.04.

Regarding U13C U52C A121U, the self-cleavage came out at 1.65.

With U13C G35U U73A A140G, the self-cleavage came to 1.17.

Consider U13C U39A U87C A121G, for which the self-cleavage was 0.33.

For U13C G35A U45C A64U, the self-cleavage is 0.38.

For the variant U13C U132C A140G, the self-cleavage was determined as 1.08.

On to U14C A31C U39C G72A, for which the self-cleavage was 1.68.

As to U14C A22G G33A A69U U81G A136G, the self-cleavage came to 0.57.

Take U13G C37G A57G A67G C98U U109C A117U: the self-cleavage came out at 0.

With U14C A50U C101U, the self-cleavage was found to be 0.82.

Consider U13C U14C A64G U130A A140G, for which the self-cleavage is 0.59.

As for U14A U91G U108C C113U U115C, the self-cleavage was 0.

In the case of U13C U20C C28U U39C G48U U96A, the self-cleavage is 0.06.

U13C U87A A142G: the self-cleavage came to 0.22.

Turning to U14A U96C A107U U115C, the self-cleavage was found to be 0.26.

For the variant U14C A50G A142G, the self-cleavage came to 1.

For the variant U13C G35C U39C A59U U115C G139U, the self-cleavage came to 0.68.

As to U13C U14C A31G U104C, the self-cleavage came to 1.84.

On to U13C U52C A94G G114A, for which the self-cleavage amounted to 0.34.

Regarding U14C A31U G36A, the self-cleavage was 0.61.

For U13C G48A U85G A136C A141G, the self-cleavage was found to be 0.33.

As for U13C G34A A142G, the self-cleavage was determined as 1.

For U13C U20C A79G U112A A140G, the self-cleavage was 0.

U13C U62C U108C: the self-cleavage is 0.11.

As to U13C U45C U119A, the self-cleavage was found to be 0.38.

Regarding U13C U23C U39C A129G, the self-cleavage turned out to be 0.

As for U13G A64G A94G, the self-cleavage was found to be 0.

On to U13C U14C U73A, for which the self-cleavage came out at 1.31.

In the case of U13C U47C A57G U73A, the self-cleavage worked out at 0.71.

U13C U62C A77U C120A: the self-cleavage was 0.05.

As for U14A A50G U81A U109C A138G, the self-cleavage was found to be 0.37.
